Source: article PMC11476297
These are yes or no findings as the source states them, for the method shown. Binding seen in cells or lysates may run through a third protein. Some results given as binding are weak or reduced against the parent protein; the word gives no strength.

Protein sequences, listed by entry. Tags and fused reporters are not part of them. Lines headed by an entry give the natural chain unless they say otherwise; changes in a name come on top. Chains listed by the source or under a name are the forms on record and can include a tag or linker. Residues count along the entry.
UniProt P25788: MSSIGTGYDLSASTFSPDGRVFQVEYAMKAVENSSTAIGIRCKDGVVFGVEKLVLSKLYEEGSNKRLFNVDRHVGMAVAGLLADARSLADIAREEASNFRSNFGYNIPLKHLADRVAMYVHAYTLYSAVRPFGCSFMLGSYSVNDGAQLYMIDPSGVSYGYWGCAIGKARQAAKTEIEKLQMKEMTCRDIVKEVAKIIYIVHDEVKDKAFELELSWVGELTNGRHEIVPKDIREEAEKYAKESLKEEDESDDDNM
PSMA3 Trapper (PSMA3 186-255) fused to 3xHA tag and Luc2: residues 186-255 of P25788
UniProt P38936: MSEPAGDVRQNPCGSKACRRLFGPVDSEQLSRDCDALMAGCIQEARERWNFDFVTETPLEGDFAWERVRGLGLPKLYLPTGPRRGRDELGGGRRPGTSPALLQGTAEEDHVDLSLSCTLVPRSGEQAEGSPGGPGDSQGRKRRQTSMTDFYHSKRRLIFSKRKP

Assays:
[1] = target: PSMA3 Trapper (PSMA3 186-255) fused to 3xHA tag and Luc2 (UniProt P25788); assay: split reporter; split Gaussia luciferase complementation; PSMA3 or Trapper on Luc2, p21 or its fragments on Luc1; HEK293 cells co-transfected, harvested after 48 h, luminescence read in 0.1% NP-40 lysates; signal as fold over control plasmids
[2] = target: full-length PSMA3 fused to 3xHA tag and Luc2 (UniProt P25788); assay: as above

| binding [1] | binding [2] | Substance |
| --- | --- | --- |
| binds | binds | 6xmyc p21 fused to Luc1, full-length p21 (2-164) (from UniProt P38936 2-164) |
| binds | binds | p21 C fragment (131-164 aa) fused to 6xmyc and Luc1 (from UniProt P38936 131-164) (domain or fragment) |
| no binding | no binding | truncated p21 C region deleted mutant (2-131) fused to 6xmyc and Luc1 (from UniProt P38936 2-131) (domain or fragment) |
